# Screen size: about 310,000 compounds; about 18,000 (5.8%) were called active. Inconclusive means that the source gave no clear call. Such entries were picked first, then a sample of the others. Calls follow the shape of the dose curve; as a rule, active = well fitted inhibition curve with a large enough effect; inconclusive = small, poorly fitted or top-dose-only effect, or another doubt; inactive = no such curve, though single readings can be large or run the other way. No potency is given beside an inconclusive call; the fits are too rough.
# Assay: Primary qHTS for delayed death inhibitors of the malarial parasite plastid, 48 hour incubation
# Details: P. falciparum luciferase growth in erythrocytes; series mostly up to 28.7 µM
# Outline: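 Cell-based growth assay: transgenic P. falciparum expressing firefly luciferase, cultured in red cells within RPMI 1640 containing 0.5% w/v Albumax, 24 mM bicarbonate and gentamycin. A drop in luciferase activity indicates inhibition.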
# Potency is read from the fitted curve at half-maximal effect; tags tell the direction and shape of the fitted curve.
row,Structure (SMILES),Potency
1,COc1cccc(C(=O)/C=C/Nc2cc(C)ccc2O)c1,"inconclusive [inhibitor, single point]"
2,Cc1cccc(CN2CCN(Cc3ccc(-n4cccn4)cc3)CC2CCO)n1 (stereo not given),inactive
3,CC(NC(=O)C12CC3CC(C1)CC(n1cncn1)(C3)C2)C12CC3CC(CC(C3)C1)C2 (stereo not given),active: 11.7 µM
4,NC(=O)c1ccc(N2CCN(S(=O)(=O)c3ccccc3)CC2)c([N+](=O)[O-])c1,"inconclusive [inhibitor, single point]"
5,CCOCCOC(=O)C1=C(C)Nc2ccc(C)cc2S1,"inconclusive [inhibitor, single point]"
6,CCCCCn1c(=N)c(S(=O)(=O)c2ccc(Cl)cc2)cc2c(=O)n3cccc(C)c3nc21,active: 1.85 µM
7,CCn1c(SCC(=O)Nc2nc3ccc(C)cc3s2)nc2c(c1=O)SC(C)C2 (stereo not given),inactive
8,COc1ccccc1OCc1nnc(SCC(=O)N2CCCCC2)n1-c1ccccc1,"inconclusive [inhibitor, single point]"
9,COCC1CCCN(C(=O)c2ccc3oc(CCCc4ccccc4)nc3c2)C1 (stereo not given),"inconclusive [inhibitor, single point]"
10,O=C1CCN(Cc2ccc(O)cc2)CCN1[C@H](CO)c1ccccc1,"inconclusive [inhibitor, full curve, poor fit]"
11,CC(NC(=O)c1ccco1)C(=O)OC(C)C(=O)NCc1ccccc1 (stereo not given),inactive
12,COc1ccc(N(CC(=O)Nc2cccc(C)c2)S(=O)(=O)c2c(C)noc2C)cc1,inactive
13,COC(=O)c1ccccc1S(=O)(=O)N1CCC(C(=O)NC2=NCCS2)CC1,inactive
14,Cc1ccccc1SC1CCN(C(=O)C2CCC(=O)N(C3CC3)C2)CC1 (stereo not given),inactive
15,CCN(CC)S(=O)(=O)c1ccc(C(=O)Nc2ccc3c(c2)OCCO3)cc1,active: 6.57 µM
16,O=C(c1ccoc1)N1CCC2(CCCN(Cc3ccc(F)c(F)c3)C2)C1 (stereo not given),"inconclusive [inhibitor, partial curve, poor fit]"
17,CC(C(=O)Nc1ccc2c(c1)OCCO2)N(c1ccccc1)S(C)(=O)=O (stereo not given),"inconclusive [inhibitor, full curve]"
18,C=CCn1c(=O)c2c(C)c(C)sc2n2c(Nc3ccccc3)nnc12,"inconclusive [inhibitor, partial curve, poor fit]"
19,COc1ccc(S(=O)(=O)N2CCN(C(=S)NCCc3ccccc3)CC2)cc1,active: 4.15 µM
20,O=C1COc2ccc(C(=O)CSc3ccc(Br)cc3)cc2N1,"inconclusive [inhibitor, partial curve]"
21,Cc1ccc2c(c1)c1c(n2CC(O)CN2CCC(C)CC2)CCCC1 (stereo not given),"inconclusive [inhibitor, single point]"
22,CC(C)(C)n1[nH]c2c3c(ccc2c1=O)C(=O)c1ccccc1C3=O,active: 1.31 µM
23,COc1ccc(C)cc1N(C(=O)c1ccccc1F)c1nc2ccccc2s1,active: 9.28 µM

row,Structure (SMILES),Potency
1,COc1ccc(OCC(O)CNCCOc2ccccc2OC)c(C(C)(C)C)c1 (stereo not given),active: 4.65 µM
2,COc1ccc(N(C)C(=O)c2cc3c(Cl)nc4ccccc4c3s2)cc1,"inconclusive [inhibitor, single point]"
3,CCc1nc(SCC(=O)Nc2nnc(CC(C)C)s2)n[nH]1,inactive
4,O=C(NC1CCCCCC1)C1CCCN(c2ncccn2)C1 (stereo not given),"inconclusive [inhibitor, single point]"
5,CCOC(=O)[C@@H]1[C@H]2COc3ccc(Br)cc3[C@H]2N2C(=O)N(c3ccc(C)cc3)C(=O)[C@]12C,"inconclusive [inhibitor, partial curve, poor fit]"
6,C=CCOc1ccc(Br)cc1CNCCCN1CCOCC1,"inconclusive [inhibitor, partial curve, poor fit]"
7,CCOC(=O)c1c(-c2ccccc2)csc1NC(=O)/C(C#N)=C/c1ccc(O)c(OC)c1,"inconclusive [inhibitor, single point]"
8,O=C(COc1ccc(Cl)cc1)Nc1cccc(S(=O)(=O)NCc2ccco2)c1,inactive
9,COc1ccc(/C(C#N)=C/c2c(-c3ccc(Cl)cc3)nc3c(C)cccn23)cc1,"inconclusive [inhibitor, full curve]"
10,CCOC(=O)C1CCN(C(=O)C(C)N(c2ccc(Oc3ccccc3)cc2)S(C)(=O)=O)CC1 (stereo not given),"inconclusive [inhibitor, partial curve, poor fit]"
11,CCN1CCN(C(c2cccs2)C(C)NC(=O)NC2CCCCC2)CC1 (stereo not given),inactive
12,CCOC(=O)C1=C(COC(=O)c2ccco2)NC(=O)NC1CC (stereo not given),inactive
13,Cc1ccc(C(O)CN2C3=NCCCN3c3ccccc32)cc1 (stereo not given),"inconclusive [inhibitor, partial curve]"
14,O=S(=O)(c1ccc(F)cc1)N1CCN(C(=S)NCCc2ccccc2)CC1,active: 1.85 µM
15,CCOC(=O)C1CCCN(C(=O)c2cc(Nc3ccc(OC)cc3)nc3ccccc23)C1 (stereo not given),"inconclusive [inhibitor, partial curve, poor fit]"
16,C=CCCC(=O)Nc1nc(C)c(-c2csc(Nc3ccccc3OC)n2)s1,active: 9.28 µM
17,O=C(O)c1ccc(NC(=O)c2cn(-c3ccccc3)nc2-c2ccc(Cl)cc2)cc1,inactive
18,Cn1c(Cn2nnc3ccccc32)nnc1SCC(=O)N1c2ccccc2Sc2ccccc21,"inconclusive [inhibitor, single point]"
19,Nc1nc(NCCc2ccccc2)nc(NCCO)c1[N+](=O)[O-],"inconclusive [inhibitor, single point]"
20,Cc1ccc(S(=O)(=O)N2CCCN(C)c3nc4ccccc4nc32)cc1,"inconclusive [inhibitor, single point]"
21,Cc1ccc(-c2cc(C(F)(F)F)n3nc(C(=O)N4CCN5CCCC5C4)cc3n2)cc1 (stereo not given),"inconclusive [inhibitor, single point]"
22,COCCN1C(=O)C(CC(=O)Nc2ccc(C(=O)O)cc2)SC1=Nc1ccccc1 (stereo not given),inactive

# — PubChem BioAssay AID504832 (National Center for Advancing Translational Sciences (NCATS), 2011)
